For assay [1], the system named is HSkMC (human skeletal muscle cells). Kind of assay: cytotoxicity call (relative viability < 0.9). Particulars: 10 µM.
Assay [2] concerns HepG2. Kind of assay: cytotoxicity call (relative viability < 0.9). Particulars: 10 µM.
Assay [3] deals with S. aureus RN4220. Kind of assay: growth inhibition call (relative growth <= 0.2). Particulars: 50 µM.

Molecules are shown by their SMILES. Some of the results follow.

For the compound `O=C(C[C@H]1CC[C@@H]2[C@H](COC[C@@H](O)CN2S(=O)(=O)c2ccccc2)O1)NCCN1CCCC1`, the cytotoxicity call in assay [1] and in assay [2] was “inactive” in each case. In addition, in assay [3], the growth inhibition call was “inactive”.

For `CC(=O)OCC(=O)C1(O)CCC2C3CCC4=CC(=O)CCC4(C)C3C(=O)CC21C` (stereo not given), the cytotoxicity call in assay [1] and in assay [2] was “inactive” in each case. Further, the growth inhibition call in assay [3] was “inactive”.

For the compound `Cc1noc(C)c1NC(=O)N(C)C[C@@H]1OCCCC[C@@H](C)Oc2ccc(NC(=O)C3CCCCC3)cc2C(=O)N([C@@H](C)CO)C[C@H]1C`, the cytotoxicity call in assay [1] and in assay [2] was “inactive” throughout. Moreover, the growth inhibition call in assay [3] was “inactive”.

On to `CC(C)NC(=O)Nc1ccc2c(c1)C(=O)N([C@@H](C)CO)C[C@@H](C)[C@H](CN(C)Cc1ccc(Cl)c(Cl)c1)OCCCC[C@H](C)O2`, for which the cytotoxicity call in assay [1] and in assay [2] was “inactive” each time. The growth inhibition call in assay [3] is “inactive”.

`C[C@H](CO)N1C[C@H](C)[C@@H](CN(C)S(C)(=O)=O)Oc2ccc(NC(=O)Cc3ccccc3)cc2CC1=O`: the cytotoxicity call in assay [1] and in assay [2] was “inactive” each time. For the same compound, in assay [3], the growth inhibition call is “inactive”.

Turning to `C[C@@H]1CN([C@@H](C)CO)C(=O)CCCn2nncc2CO[C@@H]1CN(C)S(=O)(=O)c1ccc(Oc2ccccc2)cc1`, the cytotoxicity call in assay [1] and in assay [2] was “inactive” each time. For the same compound, in assay [3], the growth inhibition call was “inactive”.

`C[C@@H]1CCCCO[C@H](CN(C)Cc2ccc(C(=O)O)cc2)[C@H](C)CN([C@H](C)CO)C(=O)c2cc(NS(=O)(=O)c3ccccc3)ccc2O1`: the cytotoxicity call in assay [1] and in assay [2] was “inactive” in each case. Besides, the growth inhibition call in assay [3] was “inactive”.

Turning to `C[C@H]1CN([C@@H](C)CO)C(=O)Cc2cc(NS(=O)(=O)c3ccc(F)cc3)ccc2O[C@@H]1CN(C)CC1CC1`, the cytotoxicity call in assay [1] and in assay [2] was “inactive” each time. Further, in assay [3], the growth inhibition call was “inactive”.

As for `Cc1ccc(S(=O)(=O)N2C[C@@H](O)COC[C@H]3O[C@H](CC(=O)NCc4ccccc4C(F)(F)F)CC[C@@H]32)cc1`, the cytotoxicity call in assay [1] and in assay [2] was “inactive” throughout. In addition, the growth inhibition call in assay [3] is “inactive”.

For the compound `COc1ccc(S(=O)(=O)Nc2ccc3c(c2)C(=O)N([C@@H](C)CO)C[C@H](C)[C@@H](CN(C)S(=O)(=O)c2ccccc2)O3)cc1`, the cytotoxicity call in assay [1] and in assay [2] was “inactive” in each case. The growth inhibition call in assay [3] was “inactive”.

Regarding `CNC(=O)C[C@H]1CC[C@@H]2[C@H](COC[C@@H](O)CN2C(=O)Nc2cccc(OC)c2)O1`, the cytotoxicity call in assay [1] and in assay [2] was “inactive” in each case. The growth inhibition call in assay [3] is “inactive”.

For the compound `COc1ccccc1CNC(=O)C[C@H]1C[C@@H]2c3cc(NC(=O)c4cccnc4)ccc3O[C@@H]2[C@@H](CO)O1`, the cytotoxicity call in assay [1] and in assay [2] was “inactive” each time. In addition, the growth inhibition call in assay [3] was “inactive”.

`CCCCN(CCCC)CCCC.Nc1ncnc2c1ncn2[C@H]1O[C@@H](COP(=O)(O)O)[C@@H](O)[C@@H]1O`: the cytotoxicity call in assay [1] and in assay [2] was “inactive” in each case. Further, the growth inhibition call in assay [3] is “inactive”.

In the case of `O=C1O[C@@H](c2ccccc2)[C@@H](c2ccccc2)N2[C@@H](c3ccc(O)cc3)[C@]3(C(=O)Nc4ccc(C#CC5=CCCCC5)cc43)[C@@H](C(=O)O)[C@H]12`, the cytotoxicity call in assay [1] and in assay [2] was “inactive” in each case. Also, in assay [3], the growth inhibition call was “active”.

With `CC(C)N1C(=O)CNC1=S`, the cytotoxicity call in assay [1] and in assay [2] was “inactive” in each case. For the same compound, the growth inhibition call in assay [3] is “inactive”.

Turning to `CN1C(=O)c2cc(NS(=O)(=O)c3cccc(F)c3)ccc2OC[C@H]2O[C@H](CC(=O)NCCN3CCCCC3)CC[C@@H]21`, the cytotoxicity call in assay [1] and in assay [2] was “inactive” throughout. In addition, in assay [3], the growth inhibition call is “inactive”.

On to `CCOC(=O)Cc1c(C)[nH]c(=O)[nH]c1=O`, for which the cytotoxicity call in assay [1] and in assay [2] was “inactive” in each case. Further, the growth inhibition call in assay [3] was “inactive”.

Turning to `C[C@H](CO)N1C[C@H](C)[C@@H](CN(C)S(C)(=O)=O)Oc2ccc(NC(=O)CCN3CCOCC3)cc2CC1=O`, the cytotoxicity call in assay [1] and in assay [2] was “inactive” throughout. Also, the growth inhibition call in assay [3] was “inactive”.

For the compound `COc1ccc(S(=O)(=O)N[C@@H]2CC[C@@H](CC(=O)N3CCN(c4ccccc4)CC3)O[C@H]2CO)cc1`, the cytotoxicity call in assay [1] and in assay [2] was “inactive” throughout. Besides, in assay [3], the growth inhibition call was “inactive”.

Turning to `CC(C)NC(=O)Nc1cccc2c1O[C@H](CN(C)Cc1ccc(-c3ccccc3)cc1)[C@H](C)CN([C@H](C)CO)C2=O`, the cytotoxicity call in assay [1] and in assay [2] was “inactive” in each case. Also, the growth inhibition call in assay [3] is “inactive”.

Regarding `COCC(=O)Nc1ccc2c(c1)C(=O)N(C)C[C@@H](OC)[C@@H](C)CN(C(=O)Cc1cccnc1)[C@@H](C)CO2`, the cytotoxicity call in assay [1] and in assay [2] was “inactive” in each case. In assay [3], the growth inhibition call was “inactive”.

On to `C[C@@H]1CCCCO[C@H](CN(C)S(=O)(=O)c2cccs2)[C@H](C)CN([C@H](C)CO)C(=O)c2cc(NS(=O)(=O)c3ccc(Cl)cc3)ccc2O1`, for which the cytotoxicity call in assay [1] and in assay [2] was “inactive” each time. In addition, the growth inhibition call in assay [3] is “inactive”.

For `CCS(=O)(=O)N1CC[C@]2(CC1)CN([C@@H](CO)c1[nH]c3cc(ccc3c12)OC)S(=O)(=O)c1ccc(cc1)C`, the cytotoxicity call in assay [1] and in assay [2] was “inactive” in each case. In addition, the growth inhibition call in assay [3] is “inactive”.

Take `COc1ccc(C#Cc2ccc3c(c2)[C@H]2[C@H](CCN2C(=O)Nc2ccc(C(F)(F)F)cc2)[C@@H](CO)N3C)cc1`: the cytotoxicity call in assay [1] and in assay [2] was “inactive” throughout. Moreover, the growth inhibition call in assay [3] is “inactive”.

For the compound `Cc1noc(C)c1NC(=O)N(C)C[C@H]1Oc2ccc(NS(=O)(=O)c3ccccc3)cc2C(=O)N([C@H](C)CO)C[C@@H]1C`, the cytotoxicity call in assay [1] and in assay [2] was “inactive” throughout. Further, the growth inhibition call in assay [3] was “inactive”.

These data come from the antibiotic and cytotoxicity screens of Wong et al. (2023).
